# Hit rate of the full screen: of about 280,000 compounds, about 1,100 (0.39%) were called active. This list was built around the results that the source calls inconclusive (neither active nor inactive); the mix of calls is not that of the screen. Calls come from the whole dose curve; as a rule, active = well fitted inhibition curve with a large enough effect; inconclusive = small, poorly fitted or top-dose-only effect, or effect the other way; inactive = flat fitted curve, though single readings scatter. Potencies of inconclusive entries are left out as doubtful fits.
# Target: Microtubule-associated protein tau (Homo sapiens) (UniProt P10636)
# Test: qHTS for Inhibitors of Tau Fibril Formation, Fluorescence Polarization; note: nearly all actives have a fitted effect of over 55% in size
# Conditions: K18 P301L tau heparin fibrillization, Alexa594 FP, 6 h; series mostly up to 57.7 µM; activity, negative = inhibition: at the top concentration
# Procedure, shortened: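 Human K18 P301L fragment (15 uM unlabeled plus 0.24 uM Alexa 594-labeled) in 100 mM sodium acetate pH 7 with compound, aggregation induced by 20 uM heparin for 6 hr at 37 C. ThT (30 uM) added for 1 hr, then Alexa 594 FP read.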
# % is set by controls: 0 for no effect and ±100 for the full control effect; potency is the fitted concentration of half-maximal effect; tags give direction and shape of the fitted curve.
# Sequence of UniProt P10636 (P10636 whole entry, looked up): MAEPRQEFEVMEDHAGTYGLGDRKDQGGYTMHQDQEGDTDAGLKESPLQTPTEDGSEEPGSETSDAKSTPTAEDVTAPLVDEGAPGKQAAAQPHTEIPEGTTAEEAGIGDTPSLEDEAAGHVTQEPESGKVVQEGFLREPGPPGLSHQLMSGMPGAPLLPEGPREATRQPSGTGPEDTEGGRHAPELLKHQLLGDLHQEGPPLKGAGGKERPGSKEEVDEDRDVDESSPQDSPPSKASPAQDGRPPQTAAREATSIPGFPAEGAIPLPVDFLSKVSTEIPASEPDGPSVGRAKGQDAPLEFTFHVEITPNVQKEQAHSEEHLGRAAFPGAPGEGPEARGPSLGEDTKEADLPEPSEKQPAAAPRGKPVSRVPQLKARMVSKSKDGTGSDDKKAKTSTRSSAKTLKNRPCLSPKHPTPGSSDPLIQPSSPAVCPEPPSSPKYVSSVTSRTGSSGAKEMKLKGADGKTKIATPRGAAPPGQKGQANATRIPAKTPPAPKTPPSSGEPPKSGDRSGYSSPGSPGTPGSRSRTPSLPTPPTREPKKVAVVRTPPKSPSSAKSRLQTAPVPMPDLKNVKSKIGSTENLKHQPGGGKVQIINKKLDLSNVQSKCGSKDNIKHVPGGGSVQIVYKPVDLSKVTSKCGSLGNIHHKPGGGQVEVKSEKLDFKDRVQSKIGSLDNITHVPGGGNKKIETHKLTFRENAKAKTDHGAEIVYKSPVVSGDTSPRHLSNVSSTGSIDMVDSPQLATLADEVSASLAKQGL
SMILES,Potency,"activity, negative = inhibition"
O=C(N/N=C/c1cccnc1)c1cc(-c2ccccc2OCc2ccccc2)n[nH]1,"inconclusive [inhibitor, single point]",
COc1ccccc1NS(=O)(=O)c1cc(NC(=O)c2cccs2)ccc1N1CCCCC1,"inconclusive [inhibitor, single point]",
COc1cc(/C=C2\S/C(=N/S(=O)(=O)c3ccccc3)NC2=O)c([N+](=O)[O-])cc1OC,"inconclusive [inhibitor, partial curve]",
Cc1cc(-c2ccc(C)c(S(=O)(=O)N(C)c3ccc(C)c(C)c3)c2)on1,"inconclusive [inhibitor, partial curve]",
Cc1ccc(S(=O)(=O)N2CCOCC2)cc1NC(=O)CN1CCN(c2ccc(O)cc2)CC1,,inactive: 1.12%
COc1cc2c(cc1NC(=O)C(C)Sc1nc3ccccc3n1C)oc1ccccc12 (centres undefined),"inconclusive [inhibitor, single point]",
Cc1ccc(NCc2ccccc2-c2nnc(-c3ccccc3Cl)o2)c(C)c1,"inconclusive [activator, partial curve]",
COc1cc(C(=O)OCCc2c(C)nc3nc[nH]n3c2=O)cc(OC)c1OC,,inactive: 0.818%
O=C(NNC(=O)c1sccc1-n1cccc1)c1ccc(Cl)cc1,,inactive: -5.75%
Cc1ccc(CNS(=O)(=O)c2cc(C(=O)Nc3cccc(C(F)(F)F)c3)ccc2F)cc1,active: 14.1 µM,
CC(=O)Nc1ccc(Nc2nnc(-c3ccc(C)c(S(=O)(=O)NCC4CCCO4)c3)c3ccccc23)cc1 (centres undefined),"inconclusive [activator, partial curve]",
CCCCn1nnnc1SCC(=O)c1ccc(C)c(C)c1,"inconclusive [inhibitor, single point]",
COc1ccc(NC(=O)Nc2sc3nc4n(c(=O)c3c2C)CCC(C)CC4)cc1OC (centres undefined),"inconclusive [activator, full curve]",
CC1(C)OCC([C@H](O)C2=CCCCC2=O)CO1,"inconclusive [inhibitor, single point]",
CCOC(=O)c1c(-c2ccccc2)csc1NC(=O)c1nc(S(=O)(=O)CC)ncc1Cl,"inconclusive [inhibitor, single point]",
Cc1ccc(C(=O)CC(Nc2ccc(F)cc2)c2ccccc2)cc1 (centres undefined),,inactive: 17.3%
NC(=O)c1ccc(NC(=O)COC(=O)c2ccc3c(c2)OCCO3)cc1,"inconclusive [inhibitor, single point]",
CCN(CC)C(=O)c1sc(NC(=O)C(C)Sc2nc(-c3ccccc3)cc(C(F)(F)F)n2)c(C(=O)OC)c1C (centres undefined),"inconclusive [inhibitor, single point]",
C/C(=C\c1ccco1)C1C(C#N)=C(N)OC2=C1C(=O)CC(C)(C)C2 (centres undefined),,inactive: -4.52%
CCc1[nH]c(=O)[nH]c1C(C)S(=O)(=O)c1ccc(C)cc1 (centres undefined),"inconclusive [inhibitor, single point]",
COc1ccc(CC(=O)NCc2cccs2)cc1,,inactive: -3.07%
Cc1ccc(NC(=O)c2cc(-c3ccc(C)o3)nc3ccccc23)cc1,"inconclusive [activator, single point]",
COCC(C)N=C1NN=C(c2cccs2)C(CC(=O)O)S1 (centres undefined),"inconclusive [inhibitor, single point]",

SMILES,Potency,"activity, negative = inhibition"
Nc1ccc2c(c1)C(=O)Cc1ccccc1S2,"inconclusive [activator, partial curve]",
COc1ccc(C(=O)Nc2ccc(C)c(S(=O)(=O)N3CCCCCC3)c2)cc1,"inconclusive [inhibitor, partial curve]",
Cc1c(C(=O)Nc2ccc(F)c(F)c2)oc2ccc(S(=O)(=O)N(C)C3CCCCC3)cc12,"inconclusive [inhibitor, partial curve]",
Cn1c(C(=O)N2CCCC(C(=O)NCc3cccs3)C2)cc2sccc21 (centres undefined),,inactive: 7.02%
CCOc1ccc(-c2cn3c(n2)sc2cc(C(=O)NCCCN(CC)CC)ccc23)cc1,,inactive: 0.0754%
Cc1ccc(-n2c(=O)c3c(cnn3C)n(CC(=O)Nc3c(C)cccc3C)c2=O)cc1,"inconclusive [inhibitor, partial curve, poor fit]",
CN(NC(=O)c1cccc(Cl)c1)c1nc(-c2ccccc2)nnc1C(F)(F)F,"inconclusive [inhibitor, single point]",
O=C(C1CCN(C2CCN(Cc3ccc4cc(F)ccc4n3)CC2)CC1)N1CCCC1,"inconclusive [inhibitor, single point]",
Cc1[nH]n(-c2ccccc2)c(=O)c1C=NCc1ccncc1,,inactive: -11.4%
COc1cc(/C=N/N2CCN(C3c4ccccc4-c4ccccc43)CC2)cc(OC)c1OC,"inconclusive [activator, partial curve, poor fit]",
N#Cc1nc(-c2cccc3ccccc23)oc1NCC1CCCO1 (centres undefined),"inconclusive [activator, full curve, poor fit]",
COc1ccc(NC(=O)C2CCCCN2N)cc1OC (centres undefined),"inconclusive [inhibitor, single point]",
CCC(C)(C(=O)NC1CCCCC1)N(C(=O)c1ccccn1)c1ccccc1 (centres undefined),"inconclusive [inhibitor, single point]",
COc1ccc(NS(=O)(=O)c2cc(C)ccc2OC)cc1OC,,inactive: 3.6%
CCCCNC(=O)Nc1ccc(C2SCCS2)cc1,"inconclusive [inhibitor, single point]",
Cc1ccc2c(c1)C(=O)C(=O)N2Cc1ccc(OC(C)C)cc1,,inactive: -3.03%
CCCc1ccc(-c2cc(NC(=O)CSc3n[nH]c(N)n3)n(-c3ccccc3)n2)cc1,"inconclusive [inhibitor, partial curve]",
CCOC(=O)c1ccc2c(c1)C(=O)N(C1CCCCC1)C2=O,,inactive: 5.26%
CC1=CSC2=NC(=O)/C(=C\c3cccn3-c3ccc([N+](=O)[O-])cc3)C(=N)N12,,inactive: 3.65%
CC1=C(C(=O)OC(C)C)C(c2ccc(C)o2)C(C(=O)OC(C)C)=C(C)N1,,inactive: -7.07%
CCOC(=O)CC(C#N)c1cn(C)c2ccccc12 (centres undefined),,inactive: 7.42%
O=C1C2C3C=CC(C4CC34)C2C(=O)N1c1ccc2c(c1)OCO2 (centres undefined),,inactive: 0.377%
Cc1cc(C(=O)O)ccc1-c1ccc(/C=C2\NC(=O)N(Cc3ccc(F)cc3)C2=O)o1,,inactive: 9.06%

SMILES,Potency,"activity, negative = inhibition"
O=C(CSc1nc2c([nH]c3ccccc32)c(=O)n1-c1ccccc1F)Nc1ccccc1C(F)(F)F,"inconclusive [inhibitor, single point]",
COc1ccc(C(=O)n2nc(C)cc2Nc2ccccc2)cc1,"inconclusive [inhibitor, partial curve, poor fit]",
Cc1ccc(S(=O)(=O)c2nc(-c3cccc(C)c3)oc2N2CCCCC2)cc1,,inactive: 1.84%
CCOc1ccc2cc(C#N)c(SCC(=O)NC(C)CC)nc2c1 (centres undefined),,inactive: -3.02%
COc1ccc(NS(=O)(=O)c2ccc3c(c2)n(C)c(=O)n3C)cc1,"inconclusive [inhibitor, full curve, poor fit]",
CCOC(=O)c1c(-c2ccc(C)o2)csc1NC(=O)COC(=O)c1ccc(NC(N)=O)cc1,"inconclusive [inhibitor, partial curve]",
COc1ccc2c(c1OC)C(=O)N1c3ccccc3N=C(c3ccc([N+](=O)[O-])cc3)CC21 (centres undefined),"inconclusive [inhibitor, single point]",
CCOC(=O)c1ccccc1NC(=O)c1sc2ccccc2c1Cl,"inconclusive [inhibitor, partial curve, poor fit]",
O=C(NCc1ccccc1)Nc1cccn(Cc2ccc(Cl)cc2)c1=O,"inconclusive [inhibitor, single point]",
O=C(Cn1cc(C(=O)C2CC2)c2ccccc21)Nc1ccc(Br)cc1,"inconclusive [inhibitor, single point]",
COC(=O)c1cccc(Oc2cccc(C(F)(F)F)c2)n1,"inconclusive [inhibitor, single point]",
COc1ccc(C2SCCN2C(=S)Nc2cccc(C(F)(F)F)c2)cc1 (centres undefined),"inconclusive [inhibitor, single point]",
CC(=O)c1ccc(NC(=O)CCCc2nc(-c3cccc(C)c3)no2)cc1,,inactive: -2.9%
O=C(COC(=O)COc1ccc(Nc2ccccc2)cc1)NCc1ccco1,,inactive: 0.265%
COc1ccccc1Nc1nc(N)nc(CSC(=S)N2CCCCC2)n1,"inconclusive [inhibitor, partial curve]",
Cc1ccc2nc(-c3cccc(Br)c3)cc(C(=O)NC3=NCCS3)c2c1,"inconclusive [inhibitor, single point]",
O=C(Nc1ccc(CN2CCCCC2)cc1)Nc1ccc(Br)cc1Cl,"inconclusive [inhibitor, single point]",
CCCCCOC(=O)Nc1ccc(S(=O)(=O)Nc2cccc([N+](=O)[O-])c2)cc1,"inconclusive [inhibitor, single point]",
O=c1[nH]sc2ccccc12,active: 25.1 µM,
COc1ccc(NC(=O)CN2C(=O)COc3ccc(S(=O)(=O)N4CCCCC4)cc32)cc1Cl,"inconclusive [inhibitor, single point]",
COc1ccc(NC(=O)c2oc3ccccc3c2NC(=O)Cc2cccs2)cc1,"inconclusive [inhibitor, partial curve]",
CN1CCc2nc3sc(C(=O)Nc4cccc(C#N)c4)c(N)c3cc2C1,,inactive: 3.18%
CC1=C(c2ccc(C)c(C)c2)S(=O)(=O)N=C1N1CCC(C(=O)Nc2cccc(F)c2)CC1,,inactive: -15.6%

# Reference: PubChem BioAssay AID1468 (National Center for Advancing Translational Sciences (NCATS), 2008)
